The campaign covered roughly 44,000 compounds. About 340 (0.77%) were called active. Inconclusive results (about 5%) are left out. Calls come from the whole dose curve; as a rule, active = well fitted inhibition curve with a large enough effect; inconclusive = small, poorly fitted or top-dose-only effect; inactive = flat fitted curve, though single readings scatter. Some of the results follow.
test: Acumen qHTS Assay for Inhibitors of the mTORC1 Signaling Pathway in MEF (Tsc2-/-, p53-/-) Cells: Sytravon; conditions: phospho-rpS6 immunofluorescence/PI, 24 h; series mostly up to 38.3 µM; activity change, negative = inhibition: at the top concentration;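 note: plate controls were DMSO for no effect and rapamycin for full effect; nearly all actives have a fitted effect of over 50% in size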
How it was run: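 Plate MEFs (Tsc2-/-, p53-/-, empty vector) in DMEM/10% FBS; after 24 h add compound, incubate 24 h at 37 degree Celsius; fix in PFA/TX-100, block, stain phospho-rpS6 and 10 uM PI; scan at 488 nm; report % positive cells.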

Activity change, negative = inhibition, inactive:
COC(=O)c1ccc(NC(=O)CC2C(=O)N(c3ccc(F)cc3)C(=O)N2Cc2ccc(OC)cc2)cc1 (centres undefined) -3.77%
Cc1cc2nc(-c3ccc(OCc4ccc(F)cc4)cc3)cc(C(F)(F)F)n2n1 -8.21%
O=C(Nc1ccc(NC(=O)c2cccs2)cc1)c1cccc(Br)c1 -5.12%
Cc1ccc(C)c(Cn2c(=O)n(Cc3ccc4c(c3)OCO4)c(=O)c3oc4ccccc4c32)c1 -0.847%
CCCCOc1ccc(C(=O)NCCc2sc(-c3cccc(F)c3)nc2C)cc1 0.247%
COc1ccc(-c2cn3nc(N4CCC(C(=O)Nc5cccc(OC)c5)CC4)sc3n2)cc1 5.11%
CCOc1ccc(Sc2cc(C(=O)NC(C)CC)c3ccccc3n2)cc1 (centres undefined) -2.54%
COc1ccc(N2CCN(S(=O)(=O)c3ccc(OC)c(-c4noc(C)n4)c3)CC2)cc1 0.21%
O=C(Cn1ncc2c3ccccc3n(Cc3ccc(Cl)cc3)c2c1=O)NCc1cccs1 3.98%
Cc1cc(NC(=O)CSc2nc3c([nH]c4ccccc43)c(=O)n2-c2ccccc2)no1 -0.967%
O=c1cc(-c2ccc(F)cc2)nc(SCc2nc(-c3cccc(Cl)c3)no2)[nH]1 -10.1%
O=C(C1CCCN(S(=O)(=O)c2ccc(Br)s2)C1)N1CCN(c2ccc(F)cc2)CC1 (centres undefined) 5.23%
CCc1ccc(NC(=O)c2ccc(F)c(S(=O)(=O)N(C)C3CCCCC3)c2)cc1 -24.3%
CCc1ccc(NC(=O)CSc2nccn2-c2cccc(C)c2C)cc1 1.81%
CC1CN(C(=O)N2CCC(C(=O)NCCC3=CCCCC3)CC2)c2cc(Cl)ccc2O1 (centres undefined) 2.33%
Cc1ccc(C2CC(=O)N(Cc3ccccc3)c3c2c(C)nn3-c2nc(C)cc(C)n2)cc1 (centres undefined) -13.3%
COc1ccc(NC(=O)CSc2nc3ccncc3[nH]2)c(OC)c1 -13.4%
Cc1ccc(C)n1-c1c(C(=O)NCCCN2CCN(c3ccc(F)cc3)CC2)sc2ncccc12 -5.02%
O=C(C1CCN(S(=O)(=O)Cc2ccccc2)CC1)N1CCN(c2ccc(F)cc2)CC1 -0.384%
Cc1ccc2c(=O)cc(C(=O)Nc3sc4c(c3C(N)=O)CCCC4)oc2c1 -3.37%
Cc1ccc(Cl)cc1-n1ncc2c(NCCCn3ccnc3)ncnc21 5.69%
COc1ccc(C2C(=O)N(C3CCCCC3)CC(=O)N2CCc2ccc(OC)c(OC)c2)cc1 (centres undefined) 8.8%
Cc1ccc(C)c(CN2C(=O)C3(c4ccccc42)N(c2cccc(C(F)(F)F)c2)C(=O)CS3(=O)=O)c1 (centres undefined) -15.7%
Cc1ccc2oc(-c3cc(NC(=O)c4ccc5c(c4)OCCO5)cc(C)c3O)nc2c1 5.94%
CCOC(=O)c1cc(C)n(CC2CCC(C(=O)Nc3ccc(OCC)cc3)CC2)c1C (centres undefined) 3.27%
CCC(C(=O)N1CCN(c2ccccc2F)CC1)n1nc(C)c2sc3ccccc3c2c1=O (centres undefined) -5.22%
COc1cc(CN(C(=O)c2cccc(Cl)c2)c2ccccn2)cc(OC)c1OC -0.775%
COc1ccc(NC(=O)CCn2nc(-c3ccccc3OC)c3c(C)cc(C)nc32)cc1 0.624%
Cc1ccc(Cl)cc1N1CCN(C(=O)c2cccn3c(=O)c4cc(Cl)ccc4nc23)CC1 -2.13%
Cc1ccc(-n2nc(C(=O)Nc3ccc(Cl)cn3)c3c4ccccc4n(C)c3c2=O)cc1 0.419%
CC1=C(C(=O)OCC(C)C)C(c2ccc(OCc3ccccc3)cc2)N2C(=O)CCSC2=N1 (centres undefined) -27.7%
COc1ccc(NC(=O)CSc2nc(-c3ccco3)cc(C(F)(F)F)n2)c(OC)c1 -0.771%
CCCCN(C)C(=O)C1CCC(CNS(=O)(=O)c2ccc3c(c2)CC(C)N3C(C)=O)CC1 (centres undefined) -8.75%
CCN(CC)C(=O)Cn1c(SCCOc2ccc(Cl)cc2)nc2ccccc21 3.64%
CCCc1nn2c(=O)cc(COc3ccc(/C=C(\C#N)C(=O)Nc4ccc(F)cc4)cc3)nc2s1 1.25%
CC(=O)N1c2ccccc2C(=O)C1N1CCN(c2ccc(F)cc2)CC1 (centres undefined) -5.31%
COc1ccc(NC(=O)c2ccc(CNS(=O)(=O)c3ccc4c(c3)C(C)(C)C(=O)N4C)cc2)cc1 -10.8%
COc1cccc(-n2c(=O)c3c(C)c(C(=O)N(C)C)sc3n(CC(=O)Nc3ccc(C)cc3Cl)c2=O)c1 0.0276%
O=C(Nc1ccc2c(c1)N(C1CCCC1)C(=O)c1ccccc1S2)c1cccc(F)c1 -2.63%
COc1cccc(CNC(=O)C2CCCN(c3ncnc4onc(-c5ccc(F)cc5)c34)C2)c1 (centres undefined) -0.465%
Cc1c(C)n(Cc2ccccc2)c2ccc(C(=O)NCCc3ccccc3Cl)cc12 -3.28%
CC(C)OCCCNC(=O)CN1C(=O)CSc2ccc(S(=O)(=O)N3CCCCC3)cc21 6.33%
Cc1ccc(Cl)cc1NCc1nnc2n1CCCCC2 5.44%
O=C(NCCc1csc(-c2cccc(F)c2)n1)c1ccc(Br)o1 -10.5%
O=C1CC(c2nc(-c3cccc(Cl)c3)no2)CN1c1ccc2c(c1)OCCO2 (centres undefined) -1.03%
Cc1n[nH]c(C)c1S(=O)(=O)N(CC(=O)NCc1ccccc1Cl)c1ccc(C(C)C)cc1 -9.66%
Cc1ccc(-n2nnnc2C2CCN(S(=O)(=O)c3ccc(OC(F)(F)F)cc3)CC2)cc1 -1.89%
CCN(C(=O)Cn1c(=O)oc2cc(S(=O)(=O)N3CCCC3)ccc21)c1cccc(C)c1 -3.52%
Cc1cc(C)cc(NC(=O)CN(C)S(=O)(=O)c2ccc3[nH]c4c(c3c2)CCCC4)c1 0.176%
CCOc1ccc(CCNC(=O)c2c(C)oc3ncnc(N4CCOCC4)c23)cc1 -12.2%
COCCCNC(=O)CSc1nc2ccccc2c(=O)n1Cc1ccco1 0.536%
Cc1ccc(NC(=O)CN2C(=O)COc3ccc(S(=O)(=O)N4CCCCCC4)cc32)cc1C -2.9%
CCOc1cccc(CNc2ccc(O)cc2)c1OCc1ccccc1Cl -9.35%
CCc1nnc2c(NCCc3ccc(OC)c(OC)c3)nc3ccccc3n12 4.24%
Cc1ccc(C)c(N2CCN(C(=O)CCS(=O)(=O)c3ccc4c(c3)CC(=O)N4C)CC2)c1 -10.9%
COc1ccc(-c2onc(C)c2C)cc1S(=O)(=O)NCc1ccc(Br)cc1 -6.04%
CCc1ccc(NC(=O)CC2C(=O)N(c3ccc(Cl)cc3)C(=O)N2Cc2cccs2)cc1 (centres undefined) 0%
COc1cccc(C2CC(=O)Nc3c2c(=O)n(C)c2ncnn32)c1OC (centres undefined) 4.08%
COc1ccc(OC)c(S(=O)(=O)Nc2cc3c(C(C)=O)c(C)oc3c3ccccc23)c1 8.86%
COC(=O)c1c(NC(=O)COc2cc(C)c(Cl)c(C)c2)sc2c1CCCC2 -4.34%
CCOc1ccc(NS(=O)(=O)c2ccc3c(c2)CCN3C(C)=O)cc1 -2.73%
COc1ccc(-c2nnc(SCC(=O)Nc3ccc(C(C)=O)cc3)nc2-c2ccc(OC)cc2)cc1 3.3%
CC(Oc1ccc(F)cc1)C(=O)Nc1cc(-c2ccc(F)c(F)c2)no1 (centres undefined) 0%
Cc1ccc(S(=O)(=O)NCC2CCC(C(=O)N(C)Cc3ccccc3)CC2)cc1 (centres undefined) -0.957%
Cc1ccc(OCC(=O)N(Cc2ccco2)C2CCS(=O)(=O)C2)cc1 (centres undefined) 0%
COc1ccc(-c2cccc(NS(=O)(=O)c3ccc(C)s3)c2)nn1 2.11%
COCCCNC(=O)c1oc2c(c1C)-c1nn(Cc3ccc(Cl)cc3)cc1CC2 4.11%
Cn1cc(CCC(=O)NCc2ccc(Cl)cc2)c2ccccc21 -1.15%
Cc1cc(C)cc(NS(=O)(=O)c2ccc(-n3cccn3)cc2)c1 -4.95%
CCOc1cc(CNc2ccc(C(=O)O)cc2)ccc1OCc1ccccc1 -4.56%
CC1CCC(Nc2ncnc3onc(-c4ccc(F)cc4)c23)CC1 (centres undefined) 1.69%
O=C(O)c1c(-c2ccccc2)oc2ccc(OCc3ccc(Cl)c(Cl)c3)cc12 -10.1%
COc1cccc(-n2c(=O)c3c(C)c(C)sc3n(CC(=O)Nc3ccccc3OC)c2=O)c1 4.97%
CCc1ccc(CNCc2c(C(=O)O)c(C)n(Cc3c(F)cccc3Cl)c2C)cc1 -2.85%
Cn1c(=O)n(C)c2cc(N3CCOCC3)c(NS(=O)(=O)c3ccc(C(C)(C)C)cc3)cc21 0.301%
Cc1ccccc1CC1C(=O)Nc2ccc(Br)cc21 (centres undefined) -14.3%
CCOc1cccc(C(=O)N(Cc2ccc(N(C)C)cc2)CC2CCCO2)c1 (centres undefined) -4.1%
CCc1ccccc1NC(=O)N1CCC(CN2CCc3ccccc3C2)CC1 2.46%
Cc1ccc(C(=O)CCC(=O)Nc2ccc(C)cc2C)cc1 -1.85%
CCOc1ccc(N(C(=O)c2ccccc2F)S(=O)(=O)c2ccc3c(c2)n(C)c(=O)n3C)cc1 2.84%
CC1CCN(S(=O)(=O)c2ccc3c(ccc(=O)n3CC(=O)Nc3ccc(C(C)C)cc3)c2)CC1 -7.22%
CCOC(=O)c1c(-c2ccc(C)cc2)csc1NC(=O)c1cc(-c2ccc(Cl)cc2)on1 -8.87%
CS(=O)(=O)N(CC(=O)Nc1ccc(Br)cc1)c1ccccc1Br -0.0914%
CNC(=O)Cn1nc(-c2ccc(Cl)cc2)c2ccccc2c1=O -20.4%
CCCCC(CC)CNC(=O)CN(C)S(=O)(=O)c1ccc2c(c1)c(=O)n(C)c(=O)n2C (centres undefined) -9.47%
COc1ccc(NC(=O)CSC2=Nc3ccccc3C3=NC(CCC(=O)NCc4ccc(F)cc4)C(=O)N23)cc1Cl (centres undefined) -20.5%
COc1cccc(N2CCN(C(=O)C3CCN(S(=O)(=O)c4cccc5nonc45)CC3)CC2)c1 -7.99%
Cc1cc(NC(=O)CCNS(=O)(=O)c2ccc3c(c2)CCCC(=O)N3)ccc1Br 6.77%
Cc1ccc(CN(C(=O)COc2ccc(Cl)cc2)c2ccccn2)o1 -2.17%
CCOc1ccccc1NC(=O)c1c(NCc2ccc(C)o2)sc2c1CCC(C)C2 (centres undefined) -9.75%
COc1ccc(CCNC(=O)Cn2nc(C)n3c(cc4cc(F)ccc43)c2=O)cc1OC -16.8%
COc1ccc(S(=O)(=O)Nc2ccc3oc4c(c3c2)C(=O)CC(C)(C)C4)cc1 -15.9%
CCCCN(C)C(=O)Cn1c(C2CC(=O)N(c3ccc(C)cc3)C2)nc2ccccc21 (centres undefined) 2.42%
Cc1ccc(C)c(N2CCN(C(=O)c3cc4c(=O)n(Cc5ccco5)ccc4nc3C)CC2)c1 -15.7%
